Test results from the RNAGym collection of RNA variant scans (doi:10.1101/gad.245936.114).
Variants at the floor of the assay are shown more often than the library holds them.

B1: tRNA (parent)
chain: CUCUCGGUAGCCAAGUUGGUUUAAGGCGCAAGACUUUAAUUUAUCACUACGAAAUCUUGAGAUCGGGCGUUCGACUCGCCCCCGGGAGAUUUUUUCCUCGAGCAA

Variants of: B1
Assay: nonsense suppression (GFP-seq) (ratio to wild type); higher = more function; SUP4oc tRNA, yeast GFP reporter sort-seq
Method in brief: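 Nonsense suppression (GFPSEQ) is the median GFP/RFP ratio of each sorting bin, weighted by the variant's estimated share of cells in that bin and expressed relative to the unmutated parent tRNA. Yeast strains carried genome-integrated variants of an ochre-suppressor tRNA from a library with ~3% random mutations, plus a galactose-driven GFP ochre reporter and RFP, and were grown in raffinose/galactose medium containing 80 mg/L adenine. Cells were sorted into GFP/RFP bins, each bin was Illumina-sequenced (phred ≥30), and variants were kept only with ≥100 reads and ≥30 cells.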

| Variant | nonsense suppression |
| --- | --- |
| A14C A33U A74U | ≤ 0.026 |
| A14C A33U U35G G67C | ≤ 0.026 |
| A14C A54G G65C C79U | ≤ 0.026 |
| A14C A60C G67A | ≤ 0.026 |
| A14C C27A | ≤ 0.026 |
| A14C C27G G65A | ≤ 0.026 |
| A14C C27U C77G | ≤ 0.026 |
| A14C C29G A30G | ≤ 0.026 |
| A14C C29G G32U G84A | ≤ 0.026 |
| A14C C29U | ≤ 0.026 |
| A14C C34U U35C | ≤ 0.026 |
| A14C C56G | ≤ 0.026 |
| A14C C56G C72G G86A | ≤ 0.026 |
| A14C C64A A87G | ≤ 0.026 |
| A14C C68A A87U | ≤ 0.026 |
| A14C C68U U70C C72G | ≤ 0.026 |
| A14C C75A | ≤ 0.026 |
| A14C C79A | ≤ 0.026 |
| A14C C81G | ≤ 0.026 |
| A14C C82A | ≤ 0.026 |
| A14C G15U A33G | ≤ 0.026 |

| Variant | nonsense suppression |
| --- | --- |
| A14C G18A G28U G88C | ≤ 0.026 |
| A14C G19A G28C G61U G66A G88A | ≤ 0.026 |
| A14C G19C A30U U70G | ≤ 0.026 |
| A14C G19U | ≤ 0.026 |
| A14C G19U A23G U55C G69C | ≤ 0.026 |
| A14C G25U | ≤ 0.026 |
| A14C G25U U63C | ≤ 0.026 |
| A14C G26C A54G | ≤ 0.026 |
| A14C G26U A33C U58G | ≤ 0.026 |
| A14C G32C C64A | ≤ 0.026 |
| A14C G59U | ≤ 0.026 |
| A14C G61U | ≤ 0.026 |
| A14C G67U U70C | ≤ 0.026 |
| A14C G69A | ≤ 0.026 |
| A14C G69U | ≤ 0.026 |
| A14C G73A G88A | ≤ 0.026 |
| A14C G73U G84U | ≤ 0.026 |
| A14C G78A C80A C81A | ≤ 0.026 |
| A14C G78U | ≤ 0.026 |
| A14C U16A G19A | ≤ 0.026 |
| A14C U16C G19A A23U C29U A30G C72G C82A | ≤ 0.026 |

| Variant | nonsense suppression |
| --- | --- |
| A14C U16C G26C A74C | ≤ 0.026 |
| A14C U17G A54C C56A C82A | ≤ 0.026 |
| A14C U20G | ≤ 0.026 |
| A14C U20G A60C | ≤ 0.026 |
| A14C U20G G25C A33G C56G U71G | ≤ 0.026 |
| A14C U21G C68U | ≤ 0.026 |
| A14C U22C | ≤ 0.026 |
| A14C U22G A54G G73C C79A | ≤ 0.026 |
| A14C U35A A74G C75U | ≤ 0.026 |
| A14C U35C | ≤ 0.026 |
| A14C U58G | ≤ 0.026 |
| A14C U58G G59U C82U | ≤ 0.026 |
| A14C U63G A87C | ≤ 0.026 |
| A14C U63G C82U A89C | ≤ 0.026 |
| A14C U71C G84A | ≤ 0.026 |
| A14C U76C G78C G88C | ≤ 0.026 |
| A14G | ≤ 0.026 |
| A14G A23G | ≤ 0.026 |
| A14G A23U G69C | ≤ 0.026 |
| A14G A23U G88U | ≤ 0.026 |
| A14G A24C G61U C68U A87G | ≤ 0.026 |

| Variant | nonsense suppression |
| --- | --- |
| A14G A24G G61A A62G G86A | ≤ 0.026 |
| A14G A24G U70A | ≤ 0.026 |
| A14G A24U A89C | ≤ 0.026 |
| A14G A24U C83A | ≤ 0.026 |
| A14G A30C G61C A74U | ≤ 0.026 |
| A14G A30G | 0.03 |
| A14G A31C C68A | ≤ 0.026 |
| A14G A31U G66C | ≤ 0.026 |
| A14G A33G A54C C75U | ≤ 0.026 |
| A14G A33G U70C G78A | ≤ 0.026 |
| A14G A54G G86A | ≤ 0.026 |
| A14G A54U G85U | ≤ 0.026 |
| A14G A62G C75U | ≤ 0.026 |
| A14G A62U C72A | ≤ 0.026 |
| A14G A62U C75G | ≤ 0.026 |
| A14G A74C | ≤ 0.026 |
| A14G A87U | ≤ 0.026 |
| A14G A89U | ≤ 0.026 |
| A14G C27U G78C | ≤ 0.026 |
| A14G C29A G73A | ≤ 0.026 |
| A14G C29U | 0.0832 |
